The campaign covered roughly 310,000 compounds. About 2,200 (0.71%) showed an effect of 50% or more. The effect is printed as a negative number. Some of the results follow.
target: human ether-à-go-go-related gene (hERG) potassium channel (human, UniProt Q12809); assay: primary screen, population patch clamp on CHO cells stably expressing hERG
Sequence (Q12809 whole entry, looked up): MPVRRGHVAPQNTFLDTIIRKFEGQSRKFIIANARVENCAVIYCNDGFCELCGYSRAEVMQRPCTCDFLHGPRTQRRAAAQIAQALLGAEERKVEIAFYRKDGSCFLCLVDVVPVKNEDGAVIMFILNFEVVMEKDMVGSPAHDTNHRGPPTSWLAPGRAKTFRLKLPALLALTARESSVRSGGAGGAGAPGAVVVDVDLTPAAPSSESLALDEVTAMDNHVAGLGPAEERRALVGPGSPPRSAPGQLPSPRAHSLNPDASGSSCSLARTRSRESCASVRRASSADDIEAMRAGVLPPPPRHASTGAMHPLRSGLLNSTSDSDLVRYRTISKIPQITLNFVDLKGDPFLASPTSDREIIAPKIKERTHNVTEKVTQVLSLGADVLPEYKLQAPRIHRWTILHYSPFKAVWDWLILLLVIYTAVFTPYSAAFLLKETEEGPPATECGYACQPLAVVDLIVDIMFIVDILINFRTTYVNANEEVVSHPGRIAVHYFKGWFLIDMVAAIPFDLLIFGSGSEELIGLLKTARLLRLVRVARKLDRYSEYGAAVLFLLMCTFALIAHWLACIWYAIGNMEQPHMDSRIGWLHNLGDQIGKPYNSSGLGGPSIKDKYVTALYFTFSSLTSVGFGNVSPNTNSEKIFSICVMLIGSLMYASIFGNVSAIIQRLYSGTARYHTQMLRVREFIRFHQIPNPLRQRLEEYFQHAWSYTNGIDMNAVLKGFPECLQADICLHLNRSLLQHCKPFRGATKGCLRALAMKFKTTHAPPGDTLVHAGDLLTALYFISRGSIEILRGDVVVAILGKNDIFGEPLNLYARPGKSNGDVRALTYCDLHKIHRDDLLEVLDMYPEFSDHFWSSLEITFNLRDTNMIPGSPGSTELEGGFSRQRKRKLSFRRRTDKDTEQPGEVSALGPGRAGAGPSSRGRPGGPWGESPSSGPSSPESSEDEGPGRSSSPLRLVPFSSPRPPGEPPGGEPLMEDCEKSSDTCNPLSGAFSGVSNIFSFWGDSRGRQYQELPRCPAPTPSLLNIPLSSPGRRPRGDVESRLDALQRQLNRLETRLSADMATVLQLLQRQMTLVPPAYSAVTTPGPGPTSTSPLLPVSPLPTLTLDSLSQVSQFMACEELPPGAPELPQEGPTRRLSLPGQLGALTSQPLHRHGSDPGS

| SMILES | hERG current change (%, negative = inhibition) at 1uM [%] |
| --- | --- |
| COc1ccc(NC(=O)CS(=O)c2ccc(Br)cc2)cc1 (stereo not shown) | 4.44 |
| CC(=O)N1CCc2cc(S(=O)(=O)NCCC(=O)NC3CCCc4ccccc43)ccc21 (stereo not shown) | 13.1 |
| Clc1ccc(Nc2nc(C3CC3)cs2)cc1 | 11.4 |
| Oc1ccccc1-c1n[nH]c(=S)n1Cc1ccco1 | 8.7 |
| CN(C)S(=O)(=O)c1ccc(N2CCCC2)c(C(=O)NC2(C)CCS(=O)(=O)C2)c1 (stereo not shown) | 15 |
| CCOC(=O)c1c(C2CCN(C(=O)OCC)CC2)nc2ccccn12 | -11.3 |
| Cc1ccc(S(=O)(=O)Nc2ccc(N=Nc3ccc(O)cc3)cc2)cc1 | 19.4 |
| CCNC(=S)NNC(=O)c1c(Cl)c(C)nn1C | 5.71 |
| Cc1cc(C)cc(C(=O)N(CCc2ccccc2)C2CC3CCC(C2)N3C)c1.Cl (stereo not shown) | -18 |
| CCN(CC)CC(=O)Nc1ccc(C)cc1C(=O)c1ccccc1 | 5.76 |
| COc1ccc(-c2ccc(NS(=O)(=O)c3cc([N+](=O)[O-])c(C)c([N+](=O)[O-])c3)cc2)nn1 | 9.27 |
| CC1CCc2c(sc(Nc3nc4c(F)cccc4s3)c2C(N)=O)C1 (stereo not shown) | 21.2 |
| NS(=O)(=O)c1ccc(CCNC(=O)CSc2ccc([N+](=O)[O-])cc2)cc1 | 5.23 |
| CCOc1ccc(CNC(=O)c2ccc3c(c2)N(CC)CCS3)cc1 | 18.4 |
| O=C(COc1cccc2cccnc12)Nc1nccs1 | 1.73 |
| CN(C)S(=O)(=O)c1cc(C(=O)NCCCn2ccc3ccccc32)ccc1Cl | 1.74 |
| CCN(CC)C(=O)c1sc(NC(=O)c2cccs2)c(C#N)c1C | 15.5 |
| C=CCNC(=O)c1onc(CSc2ccccc2F)c1C(=O)O | 17.6 |
| O=C(COC(=O)C1CC1)Nc1ccc(N=Nc2ccccc2)cc1 | 8.32 |
| CN1CCC(N(C)c2ccc(C(N)=O)cc2[N+](=O)[O-])CC1 | 13.6 |
| COC(=O)CSc1[nH]c2ccccc2c1[N+](=O)[O-] | 9.24 |
| Cc1cc(C(=O)OCC(=O)Nc2cccc(S(N)(=O)=O)c2)c2ccccc2n1 | 7.84 |

| SMILES | hERG current change (%, negative = inhibition) at 1uM [%] |
| --- | --- |
| O=C(CCCn1cc([N+](=O)[O-])cn1)Nc1ccc2c(c1)OCO2 | 9.46 |
| CC(C)(C)NC(=O)CN(C(=O)CCC(=O)Nc1nccs1)c1ccc(F)cc1 | 11.4 |
| CCOC(=O)C1=C(CC)Nc2ccccc2N=C1NC(=O)c1ccc(OC)c(S(=O)(=O)N2CCCCC2C)c1 (stereo not shown) | -7.89 |
| COc1ccc(N(C(=O)C2COc3ccccc3O2)C(C(=O)NC2CCCCC2)c2ccccc2)cc1OC (stereo not shown) | 6.85 |
| CCCN(CC(=O)Nc1ccccc1C)C(=O)c1ccc(NC2CC2)c([N+](=O)[O-])c1 | 5.34 |
| CCOC(=O)c1c(C)c(C(=O)Nc2ccc3c(c2)OCCO3)c(C)n1C | 6.37 |
| Cc1ccc(C(C(=O)NC2CCCC2)N(Cc2ccc(F)cc2)C(=O)c2csnn2)o1 (stereo not shown) | 6.51 |
| COc1ccc(N2C(=O)c3ccccc3C(C)(C)C2=O)cc1 | 4.02 |
| Cc1nc(-c2noc(-c3cccc(Cl)c3)n2)c(C(F)(F)F)o1 | 11 |
| Cc1ccc(-n2c(C)cc(C(=O)CSc3nncs3)c2C)cc1 | 7.71 |
| CN(c1ccc(C(=O)N2CCN(Cc3ccccc3)CC2)cc1)S(=O)(=O)c1ccccc1 | 7.76 |
| Cc1ccccc1NC(=O)Cc1nc(COC(=O)CCOc2ccccc2)cs1 | 8.83 |
| CCOP(=O)(OCC)c1ccccc1OCP(C)(=O)COc1ccccc1P(=O)(OCC)OCC | 16 |
| c1ccc2c(NCC3CCCO3)nc(-c3ccncc3)nc2c1 (stereo not shown) | 8.67 |
| O=C(NNC(=O)c1ccco1)c1csc(N2CCOCC2)n1 | 10.4 |
| O=C1c2cccnc2C(O)N1Cc1ccc(F)cc1 (stereo not shown) | 7.31 |
| Cc1nnsc1-c1c(C(=O)Oc2ccccc2)c(C)nn1-c1ccccc1 | 11.9 |
| COc1ccc(-c2noc(CN(C)C(=O)c3ccco3)n2)cc1 | 12.6 |
| Cc1cc(C)c(S(=O)(=O)N2CCN(C(=O)C(C)Cn3cncn3)CC2)c(C)c1 (stereo not shown) | 13.5 |
| CN1CCN(Cc2ccccc2Sc2ccccc2)CC1.O=C(O)/C=C\C(=O)O | -68.1 |
| Cc1ccc(-c2cc(C(=O)NCc3ccco3)c3ccccc3n2)o1 | 9.84 |
| Cc1c(C=O)c2cc(OCc3ccccc3)ccc2n1C | 12.5 |

| SMILES | hERG current change (%, negative = inhibition) at 1uM [%] |
| --- | --- |
| COc1cccc(C(=O)/C=C2\Sc3ccccc3N2C)c1 | 14 |
| CCCCOC(=O)Nc1ccc(S(=O)(=O)Nn2cnnc2)cc1 | 17.4 |
| CCCN(C(=O)c1cn(CC)c2nc(C)ccc2c1=O)c1c(N)n(Cc2ccccc2)c(=O)[nH]c1=O | 1.39 |
| CC(NC(=O)CC(O)(C(F)(F)F)C(F)(F)F)c1ccccc1 (stereo not shown) | 6.31 |
| Cc1cc(NC(=O)CSc2ccc(-c3ccc(F)cc3)nn2)no1 | 13.1 |
| CS(=O)(=O)Nc1ccccc1C(=O)Nc1ccccc1Cl | 0.659 |
| Cl.OC(COc1ccc(Cl)cc1)CN1CCC(Cc2ccccc2)CC1 (stereo not shown) | -89.6 |
| O=C(COC(=O)c1cccc(O)c1)Nc1ccc(OC(F)F)cc1 | -6.9 |
| CCN(CC(=O)Nc1ccccc1C(F)(F)F)C(=O)CSCc1c(C)noc1C | 4.47 |
| CCN1C(=O)NC(c2ccccc2)C1=O (stereo not shown) | 16.8 |
| O=C1c2ccccc2C(=O)N1CCc1ccccn1 | 16.1 |
| CCN1C(=O)/C(=C/c2ccc(C)s2)SC1=Nc1ccc(OC)cc1 | -1.24 |
| O=S(=O)(c1ccc(Cl)cc1)N1CCC2(CC1)OCCO2 | 2.73 |
| Cc1cccc(N=C2NN=C(c3c(C)[nH]c4ccccc34)CS2)c1 | 17.4 |
| CC(C)c1onc(C(=O)N2CCN(Cc3ccccc3)CC2)c1[N+](=O)[O-] | 1.48 |
| O=c1c2cc(N3CCOCC3)ccc2[nH]c(=S)n1CCc1ccccc1 | 4.9 |
| Cc1ccc(C2C3=C(CC(C)(C)CC3=O)NC3=C2C(=O)CC(C)(C)C3)o1 | 9 |
| CC(C)NC(=O)CN1C(=O)c2cccc3cccc1c23 | -0.827 |
| O=C(N/N=C/c1sc(N2CCOCC2)nc1-c1ccccc1)c1ccccc1Cl | 9.97 |
| O=C(Cc1ccccc1)NCCSC1CCCCC1 | 12.3 |
| CCOc1ccc(/C=C2/Sc3ccc(C(=O)NCC4CCCO4)cc3N(C)C2=O)cc1OC (stereo not shown) | 10.1 |
| Cc1nnc(SCC2=C(C(=O)O)N3C(=O)C(NC(=O)Cn4nc(C(F)F)c(Cl)c4C)C3SC2)s1 (stereo not shown) | 5.02 |

| SMILES | hERG current change (%, negative = inhibition) at 1uM [%] |
| --- | --- |
| Cc1ccccc1-n1c(-c2ccc3ccccc3n2)n[nH]c1=S | 10.8 |
| COc1ccc2cc(C3CC(c4ccco4)=NN3S(=O)(=O)c3ccccc3)c(Cl)nc2c1 (stereo not shown) | 11.4 |
| O=C(CN1C(=O)NC2(CCCC2)C1=O)N1CCN(S(=O)(=O)c2ccccc2Br)CC1 | 3.93 |
| Cc1ccc(F)cc1NC(=O)CCC(=O)c1cccs1 | 10.6 |
| O=C(COC(=O)c1ccccn1)Nc1cccc2ccccc12 | 17.5 |
| COC(=O)c1ccccc1NC(=O)CNc1cc(OC)c(OC)cc1C | -11.1 |
| C=CCN1CC(C(=O)N2CCC(Cc3ccc(Cl)cc3)(C(=O)OCC)CC2)CC1=O (stereo not shown) | -22.1 |
| CCc1ccc2nc(N(CCN(C)C)C(=O)c3ccc4ccccc4c3)sc2c1.Cl | 8.31 |
| CCOc1ccc(-n2nc3ccc(N)cc3n2)cc1 | 11.9 |
| Cc1ccc(C2=Nc3ccccc3NC(C)(c3ccc(C)o3)C2)o1 (stereo not shown) | 3.88 |
| COc1ccc(C2NN=C(c3ccc(C)cc3)S2)cc1 (stereo not shown) | 11.7 |
| Cc1c(C)c2ccc(OC(C)C(=O)NCCCn3ccnc3)c(C)c2oc1=O (stereo not shown) | 5.94 |
| CC(=Nc1ccccc1)C1=C(O)CCCC1=O | 16.2 |
| N=c1oc2ccccc2cc1-c1nc(-c2ccc(Cl)cc2)cs1 | 8.79 |
| O=C(COC(=O)c1ccc(F)cc1)Nc1ccccc1N1CCOCC1 | 4.75 |
| Cc1ccc(N2C(=O)c3n[nH]c(C)c3C2c2cccnc2)cc1 (stereo not shown) | 7.27 |
| O=C(NCC(=O)N(Cc1cccs1)C(C(=O)NC1CCCCC1)c1ccco1)c1ccco1 (stereo not shown) | -1.29 |
| O=C(COC(=O)CNC(=O)c1ccc(Cl)c([N+](=O)[O-])c1)NC(=O)c1ccccc1 | 9.95 |
| Cc1cccc(N(C2C=CS(=O)(=O)C2)S(=O)(=O)c2ccccc2)c1 (stereo not shown) | 14.2 |
| Cc1cccc(NC(=O)C(=O)NCC2CCCN2S(=O)(=O)c2ccccc2)c1 (stereo not shown) | 12.8 |
| N#Cc1c2c(c(NCc3cccnc3)n3c1nc1ccccc13)CCC2 | -5.45 |
| CC(C)OCCCN1CC(=O)N2C(c3ccccc3)c3[nH]c4ccccc4c3C[C@H]2C1=O (stereo partly shown) | -1.53 |
